Measured values published in PubChem BioAssay AID2546 (National Center for Advancing Translational Sciences (NCATS), 2010).
Hit rate of the full screen: of about 310,000 compounds, about 11,000 (3.5%) were called active. Inconclusive means that the source gave no clear call. Such entries were picked first, then a sample of the others. Calls come from the whole dose curve; as a rule, active = well fitted inhibition curve with a large enough effect; inconclusive = small, poorly fitted or top-dose-only effect, or effect the other way; inactive = flat fitted curve, though single readings scatter. No potency is given beside an inconclusive call; the fits are too rough.
% is set by controls: 0 for no effect and ±100 for the full control effect; potency is the fitted concentration of half-maximal effect; tags give direction and shape of the fitted curve.

Assay: VP16 counterscreen qHTS for inhibitors of ROR gamma transcriptional activity;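 note: Gal4-VP16 expression switched on by copper sulfate through the metallothionein promoter; nearly all actives have a fitted effect of over 50% in size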
Conditions: Drosophila S2 Gal4-VP16 UAS-luciferase, luminescence, 20 h; activity, negative = inhibition: at 53.6 µM (top of the series)
In the case of `CC(=O)c1ccccc1OCC(O)CN1CCN(CCN2C(=O)c3cccc4cccc(c34)C2=O)CC1` (stereo not given), the Potency is reported as inconclusive [inhibitor, single point]. With `Cc1c(CCC(=O)O)c(=O)oc2cc3occ(-c4ccc(F)cc4)c3cc12` the Potency was inconclusive [inhibitor, partial curve]. For `COc1cc(-c2ccc(NC(=O)NC3CC3)c(OC)c2)ccc1NC(=O)NC1CC1`, the Potency was inconclusive [inhibitor, full curve, poor fit]. In the case of `O=C(COC(=O)c1ccccn1)c1ccc([N+](=O)[O-])cc1`, the Potency is reported as inconclusive [activator, single point]. For `OCC1(Cc2ccccc2)CCN(Cc2cnn(-c3ccccc3F)c2)CC1`, the Potency was “inactive”. For `Clc1ccc(/C=C/c2ncc3ccccn23)cc1`, the Potency was “inactive”. In the case of `O=C(/C=C/c1ccc(Br)cc1)NC(=O)c1ccccc1O`, the Potency is reported as “inactive”. With `Cc1ccc2nc(-c3cc(N)cc(N)c3)oc2c1` the Potency was inconclusive [inhibitor, partial curve]. With `CCOC(=O)[C@H](Cc1ccc(O)cc1)NC(=O)c1ccccc1` the Potency was inconclusive [inhibitor, full curve]. For `C=CCNc1ncnc2c1cnn2-c1cccc(C)c1`, the Potency was inconclusive [activator, single point]. For `Cc1cccc(N2CC(C)Cn3c2nc2c3c(=O)[nH]c(=O)n2C)c1` (stereo not given), the Potency was “inactive”. In the case of `COc1cc(NS(=O)(=O)c2c(C)oc3c(F)c(F)c(F)c(F)c23)cc(OC)c1OC`, the Potency is reported as inconclusive [inhibitor, single point]. For `CCc1ccc(S(=O)(=O)N2CCCC(N3CCN(c4ccc(OC)cc4)CC3)C2)cc1` (stereo not given), the Potency was inconclusive [inhibitor, single point]. In the case of `Cc1cc(NC(=O)c2cccs2)ncc1NC(=O)c1cccc(F)c1`, the Potency is reported as inconclusive [activator, partial curve]. With `Cc1ccc(NC(=O)c2snc3ccc(Cl)cc23)cc1C` the Potency was inconclusive [activator, single point]. For `O=C(c1csc2ccccc12)n1cccn1`, the Potency was inconclusive [inhibitor, single point]. For `CC[C@]1(O)CC2CN(CCc3c([nH]c4ccccc34)[C@@](C(=O)OC)(c3cc4c(cc3OC)N(C)[C@H]3[C@@](O)(C(=O)OC)[C@H](OC(C)=O)[C@]5(CC)C=CCN6CC[C@]43[C@@H]65)C2)C1` (stereo not given in full), the Potency was “inactive”. For `NC(=O)c1cc(S(=O)(=O)NCCc2ccccc2)cs1`, the Potency was “inactive”. With `O=C(Nc1ccc(S(=O)(=O)Nc2ccccc2)cc1)C1COc2ccccc2O1` (stereo not given) the Potency was inconclusive [inhibitor, single point]. With `O=C(Nc1ccccc1)OC1CCS(=O)(=O)C1` (stereo not given) the Potency was inconclusive [activator, single point]. With `Cc1ccc(C)c(NC(=O)CCC(=O)N/N=C/c2cc([N+](=O)[O-])ccc2O)c1` the Potency was inconclusive [inhibitor, single point]. In the case of `CCN(CC)CCNC(=S)NC(=O)c1cn(-c2ccccc2)nc1-c1ccc(OC)cc1`, the Potency is reported as active: 12.6 µM. For `Cc1ccc(CN=c2c([N+](=O)[O-])nn(-c3ccc4c(c3)OCCO4)n2O)cc1`, the Potency was inconclusive [inhibitor, single point]. For `COc1cccc(OCc2nnc(SCC(=O)OC3CCCCC3)n2C)c1`, the Potency was inconclusive [inhibitor, single point]. In the case of `CCOC(=O)c1c(C)[nH]c(C(=O)OCCOc2ccc(Cl)cc2)c1C`, the Potency is reported as inconclusive [activator, single point]. For `CC(C)(C)C(=O)Nc1cc2c3c(c1)CC(=O)N3CCC2`, the Potency was “inactive”. For `Cc1cccc(NC(=O)CCS(=O)(=O)c2cccc3nsnc23)c1C`, the Potency was “inactive”. In the case of `Cc1cc(C)cc(NC(=S)/N=C(\N)Nc2nc(C)c3ccccc3n2)c1`, the Potency is reported as active: 3.16 µM. With `Nc1cc(-c2cccc(Br)c2)nn1Cc1ccccc1` the Potency was inconclusive [inhibitor, single point]. With `Cc1ccc(-c2nn(CC(=O)Nc3ccc4c(c3)nc3n4CCOC3)c(=O)c3ccccc23)cc1` the Potency was inconclusive [inhibitor, full curve, poor fit]. In the case of `Cc1ccc(/C=C2\CCC(C3CCCC3)C2=O)cc1` (stereo not given), the Potency is reported as inconclusive [activator, partial curve]. In the case of `COC(=O)CNC(=O)COC(=O)c1cc(F)c(F)cc1Cl`, the Potency is reported as “inactive”. In the case of `O=C(COC(=O)c1cccc(S(=O)(=O)N2CCOCC2)c1)Nc1nc(-c2ccccc2Cl)cs1`, the Potency is reported as inconclusive [inhibitor, single point]. With `CCc1cc(Br)ccc1NC(=S)NCCc1ccccc1` the Potency was active: 6.31 µM. For `CCC(C)(C)NC(=O)c1ccc2c(c1)N(CC(=O)NC1CCCC1)C(=O)C(C)(C)O2`, the Potency was “inactive”. For `c1ccc(-c2cn3c(n2)-c2ccccc2C3)cc1`, the Potency was inconclusive [inhibitor, single point]. For `CCCCC/C=C\C[C@@H]1O[C@H]1C(O)/C=C\C/C=C\CCCC(=O)O` (stereo not given in full), the Potency was “inactive”. For `CCOC(=O)c1sc(NC(=S)NC(=O)C23CC4CC(CC(C4)C2)C3)cc1C`, the Potency was active: 10 µM. For `COc1ccc(C)cc1NC(=O)c1ccc2c(=O)n3c(nc2c1)CCCCC3`, the Potency was “inactive”. With `COC(=O)c1c(NC(=O)COc2ccc(Cl)cc2)sc2c1CC(C)(C)NC2(C)C` the Potency was inconclusive [inhibitor, partial curve]. For `CCOC(=O)[C@]1(C(NC(=O)OC)c2cccc(C)c2)CCCC1=O` (stereo not given in full), the activity, negative = inhibition was inactive: 1.83% [at 10 µM]. In the case of `C(/C=C/c1ccccc1)=N/N1CCN(c2ccccc2)CC1`, the Potency is reported as inconclusive [activator, full curve, poor fit]. With `Cn1c(=O)c2c(nc(Br)n2CC(=O)C23CC4CC(CC(C4)C2)C3)n(C)c1=O` the Potency was “inactive”. With `NS(=O)(=O)c1ccc(NC(=O)CN2CCCN(S(=O)(=O)c3ccc(F)cc3)CC2)cc1` the Potency was “inactive”. With `CN(C)S(=O)(=O)N1CCC(Oc2ccc(C(=O)N3C[C@H]4CC[C@H]3C4)cc2)CC1` the Potency was inconclusive [inhibitor, single point].
